Measured values: ChEMBL document CHEMBL5308541, “MAIP: An Open-Source Tool to Enrich High-Throughput Screening Output and Identify Novel, Druglike Molecules with Antimalarial Activity” (ACS Med Chem Lett, 2023)
The campaign covered roughly 150,000 compounds. About 540 (0.36%) showed an effect of 50% or more. The list shows a part of the results.

The compounds below were run on Plasmodium falciparum (assay: Primary screen in NF54 nanoGlo assay, in single point, at 2uM, 72h; a lower Z score goes with more inhibition). Conditions: timepoint 72 hour.
Type: functional, Erythrocyte

| SMILES | % Inhibition [%] | Z score |
| --- | --- | --- |
| CN(CC[C@H]1CCOC1)Cc1ccc2ncccc2c1 | 1 | -0.12 |
| NCCc1ccc(C(=O)N2CCCC3(CCCC3O)C2)cc1 (centres undefined) | 12 | -1.99 |
| CC(C)C(=O)N1CCC[C@H]1C(=O)N1CCCN(CC2CCCCC2)CC1 | -6 | 1.26 |
| Cc1ccc(Oc2ccc(C(=O)Nc3ccc(Nc4cc(N5CCOCC5)nc(C)n4)cc3)cc2)nn1 | -9 | 1.85 |
| CCc1ccc2occ(C(=O)N(CCOCCO)C(C)C)c2c1 | -3 | 0.61 |
| CC(CN1CCN(C)CC1)NC1CCCC(C(F)(F)F)C1 (centres undefined) | -6 | 0.98 |
| Cn1cc(CC(=O)N2CC3CN(Cc4ccns4)CC3(CO)C2)c2ccccc21 (centres undefined) | -3 | 0.46 |
| c1ccc2[nH]c(N3CCCN(c4ncnc5[nH]ccc45)CC3)nc2c1 | -6 | 1.21 |
| O=C(N[C@H]1CCOC2(CCCC2)C1)c1ccc(Cl)c2cccnc12 | 3 | -0.42 |
| COc1ccc(-c2nn3c(-c4ccccc4O)ccnc3c2C)cc1 | -6 | 1.05 |
| CN1C(=O)c2ccc(S(=O)(=O)N3CCN(C(=O)OC(C)(C)C)CC3(C)C)cc2C1=O | -4 | 0.8 |
| Oc1ccc(-c2ncnc3sccc23)cc1OC(F)(F)F | -4 | 0.85 |
| CN1CCN(CCOc2ccccc2CN(C)Cc2cc3cc(F)ccc3[nH]2)CC1 | 73 | -14.51 |
| C[C@@H](C(=O)N1CCN(c2ccccc2)CC1)N1CCCN(CC(=O)NC(C)(C)C)CC1 | -5 | 0.88 |
| CCc1occc1C(=O)N1CCCCC[C@H](Nc2cc(-n3ccnc3)ncn2)C1 | -7 | 1.26 |
| Cc1nn(-c2ccc(F)cc2)c(C)c1CNc1nccc(N2CCC(O)CC2)n1 | -16 | 3.14 |
| O=C(c1coc(CN2CCN(C/C=C/c3ccccc3)CC2)n1)N1C[C@H]2CC[C@@H](C1)N2 | 2 | -0.47 |
| CC1CC2CCCCC2N1C(=O)C(=O)Nc1ccc(F)cc1C#N (centres undefined) | 2 | -0.34 |
| C[C@@H](CN1CCN(c2ccccc2)CC1)NC(=O)NC1CCN(C2CC2)CC1 | 4 | -0.63 |
| COc1ccc2nc3nc(N)ncc3cc2c1 | 8 | -1.55 |
| OC1(Cc2cc(-c3ccccc3)no2)CCN(Cc2cnc(N3CCOCC3)s2)CC1 | -6 | 0.98 |
| CCOc1cc(CNc2nnc(-c3cnn(C)c3)o2)ccc1OCC(=O)N1CCCCC1 | -12 | 2.1 |
